Where two headings read alike, the source gives them in different places.
Tests used:
[1] = test system: Tobacco Budworm Heliothis virenscens
Method: (§1) A test solution containing 600 parts per million (ppm) was prepared by dissolving the appropriate weight of compound in solvent (acetone:methanol, 1:1), adding surfactant (Triton X-155 and Triton B-1956, approximately 1 oz/100 gal) and then tap water to give an acetone methanol: water system of 5:5:90. Lower concentrations of 150 and 38 ppm were made by serially diluting the 600 ppm test solution while maintaining constant solvent, water and surfactant levels.
(§2) The enclosed spraying chamber consisted of a single spray nozzle mounted on a boom moving at a fixed speed and distance over stationary targets. The vertical distance from the nozzle tip to the targets was 5.5 inches. The boom speed was 100 inches per 5 seconds. The boom passed only once over the targets.
Individual cotton (Gossypium hirsutum) leaves were placed bottom side up on moistened pieces of filter paper in Petri dishes. The leaves were sprayed with the test solutions and allowed to dry. The dishes were infested with 5 neonate larvae of the tobacco budworm, covered with the lids, and held at 27° C. Percent mortality was determined 4 days post-treatment. LC50 values are calculated from the data.

[2] = test system: Southern Armyworm Spodoptera eridania
Method: as §1, §2
Individual fully expanded primary lima bean (Phaseolus limensis) leaves were placed bottom side up on moistened pieces of filter paper in Petri dishes. The leaves were sprayed with the test solutions and allowed to dry. The dishes were infested with 10 third instar larvae of the southern armyworm, covered with the lids, and held at 27° C. Armyworm control was rated by visual inspection after 96 hours. LC50 values are calculated from the data.

[3] = 5 neonate larvae on sprayed cotton leaves, 27° C., mortality 4 days post-treatment, test solutions 600, 150 and 38 ppm, LC50 calculated from the data
[4] = 10 third instar larvae on sprayed lima bean leaves, 27° C., rated after 96 hours, test solutions 600, 150 and 38 ppm, LC50 calculated from the data

| SMILES | LC50 TBW ([1]; in vivo) | LC50 AW ([2]; in vivo) | LC50 TBW [1, 3] | LC50 AW [2, 4] |
| --- | --- | --- | --- | --- |
| C#CCN1N=C(c2ccc(Cl)cc2)CN(C)C1=O [Compound 7, 2-propargyl-6-(4-chlorophenyl)-4-methyl-4,5-dihydro-1,2,4-triazin-3-one] | 150 ppm | 150 ppm | – | – |
| CN1CC(c2ccc(Cl)cc2)=NN(CSc2ccccc2)C1=O [Compound 26] | – | – | >600 ppm | 500 ppm |
| CN1CC(c2ccc(Cl)cc2)=NN(Cc2ccc(Cl)cc2)C1=O [Compound 30] | – | – | 740 ppm | 500 ppm |
| CN1CC(c2ccc(Cl)cc2)=NN(C#N)C1=O [Compound 27] | – | – | >600 ppm | 45 ppm |
| COC1NC(=O)N(CC(F)(F)F)N=C1c1ccc(Cl)cc1 (racemic) [Compound 20] | – | – | 150 ppm | 150 ppm |
| O=C1NCC(c2ccc(Cl)cc2)=NN1CC(F)(F)F [Compound 19] | – | – | 150 ppm | 150 ppm |
| Cn1nc(-c2ccc(Cl)cc2)cnc1=O [Compound 11] | – | – | 150 ppm | 150 ppm |
| CN1CC(c2ccc(Cl)cc2)=NN(c2ccc(Cl)cc2)C1=O [Compound 6, 2,6-bis-(4-chlorophenyl)-4-methyl-4,5-dihydro-1,2,4-triazin-3-one] | >600 ppm | 150 ppm | – | – |
| CN1CC(c2ccc(Cl)cc2)=NN(C)C1=O [Compound 22] | – | – | 360 ppm | 500 ppm |
| CCC#CCN1N=C(c2ccc(Cl)cc2)CN(C)C1=O [Compound 21] | – | – | 31 ppm | >600 ppm |
| CN1CC(c2ccc(Cl)cc2)=NN(Cc2ccccc2)C1=O [Compound 23] | – | – | >600 ppm | 600 ppm |
| CN1CC(c2ccc(Cl)cc2)=NN(CC#N)C1=O [Compound 24] | – | – | >600 ppm | 50 ppm |
| COC1NC(=O)N(C)N=C1c1ccc(Cl)cc1 (racemic) [Compound 12] | – | – | 150 ppm | 150 ppm |
| CCCN1N=C(c2cccc(Cl)c2)CN(C)C1=O [Compound 25] | – | – | >600 ppm | 500 ppm |

Reference: patent US6995157B2, “Substituted 4,5-dihydro-1,2,4-triazin-3-ones, 1,2,4-triazin-3-ones, and their use as fungicides and insecticides” (priority 2000, dated 2006)
